The values that follow come from PubChem BioAssay (NCATS).

A short description of the test: qHTS Assay for Lipid Storage Modulators (AID 1519). The settings on record: Drosophila S3 cells, BODIPY lipid droplet/cell ratio, laser cytometry, cells loaded with oleic acid. The gist of the method:
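Cells seeded at 5,000 per well were treated with compounds over a concentration series and loaded with oleic acid (400 uM, as added). Lipid droplet fluorescence (488 nm excitation, 500-530 nm channel) was read by laser-scanning cytometry and normalized to 20 uM Triacsin C.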
In general terms: In qHTS, concentration-response curves come from the screen itself.

Where [1] appears, read: measured here: cell count channel max response.
[2] abbreviates: measured here: cell number channel AC50.
Setting [3] is: measured here: lipid (BODIPY) channel AC50.
Setting [4] is: measured here: lipid channel max response.

This is one part of the list. The main result of the screen is listed elsewhere. These columns were measured beside it and carry no call. The list favours compounds with an active or inconclusive main result. The note in brackets gives the kind of curve behind each potency; many fits are weak.
Tags tell the direction and shape of the fitted curve.

As a reminder, the AC50 is the midpoint of the concentration-response curve, whichever way the signal moves. Turning to `C[C@@H]1CCN=C(N)S1`, the max response was -8.93% under setting [1] and -2.79% under setting [4]. The AC50 reads like this: under setting [2], 1 nM [falling, full curve, poor fit]; under setting [3], 1 nM [falling, full curve, poor fit].
Regarding `CC1(C)CC(=O)C([C@H]2C3=C(CC(C)(C)CC3=O)Oc3ccccc32)C(=O)C1`, the max response is, setting by setting: under setting [1], 52.5%; under setting [4], 64.4%. The AC50 was 17800 nM [rising, partial curve, poor fit] under setting [2] and 17800 nM [rising, partial curve, poor fit] under setting [3].
On to `CC(C)NC(=O)N1CCCC2(CCN(C(=O)c3csnn3)CC2)C1`, for which the max response under setting [1] came out at 28.3% and the max response under setting [4] was found to be 32.6%. Further, the AC50 is 5.01 nM [rising, full curve, poor fit] under setting [2] and 5.62 nM [rising, full curve, poor fit] under setting [3].
With `COC(=O)N1CCC2(CC1)CN(C(=O)Nc1cccc(F)c1)C2`, the max response turned out to be 24.4% under setting [1] and 33% under setting [4]. Also, the concentration at half-maximal activity (AC50) by setting is: under setting [2], 7.08 nM [rising, full curve, poor fit]; under setting [3], 11.2 nM [rising, full curve, poor fit].
On to `Cc1cnc(CNc2nc(-c3ccccc3Cl)nc3ccccc23)cn1`, for which the max response under setting [1] worked out at 46.8% and the max response under setting [4] was 54.7%. The AC50 reads like this: under setting [2], 1410 nM [rising, full curve]; under setting [3], 1410 nM [rising, full curve].
In the case of `C[C@H](O)CO[C@H]1[C@H]2O[C@H]3[C@H](O)[C@@H](O)[C@@H](O[C@H]4[C@H](O)[C@@H](O)[C@@H](O[C@H]5[C@H](O)[C@@H](O)[C@@H](O[C@H]6[C@H](O)[C@@H](OC[C@H](C)O)[C@@H](O[C@H]7[C@H](O)[C@@H](OC[C@H](C)O)[C@@H](O[C@H]8[C@H](O)[C@@H](O)[C@@H](O[C@@H]([C@@H]1O)[C@@H](CO)O2)O[C@@H]8CO)O[C@@H]7CO)O[C@@H]6CO)O[C@@H]5CO)O[C@@H]4CO)O[C@@H]3CO`, the max response by setting is: under setting [1], -20.2%; under setting [4], -23.6%. Besides, the AC50 under setting [2] was 20000 nM [rising, single point] and the AC50 under setting [3] was 20000 nM [rising, single point].
On to `CCOC(=O)[C@@]12C[C@@H]1/C(=N/O)c1ccccc1O2`, for which the max response under setting [1] stood at 92% and the max response under setting [4] came out at 122%. The AC50 was 15800 nM [rising, partial curve, poor fit] under setting [2] and 14100 nM [rising, partial curve, poor fit] under setting [3].
With `O=C(c1ccco1)N1CCC2(CCCN(c3ccncc3)C2)CC1`, the max response runs as follows: under setting [1], 6.02%; under setting [4], 14.1%. The AC50 was 7080 nM [rising, single point] under setting [2] and 6310 nM [rising, single point] under setting [3].
With `C[C@@H](/C=C\c1cccc(Oc2ccc(F)cc2)c1)N(O)C(N)=O`, the max response worked out at 59.6% under setting [1] and 81.4% under setting [4]. The AC50 is 3160 nM [rising, full curve] under setting [2] and 3550 nM [rising, full curve] under setting [3].
Turning to `COc1ccc(-n2c(=O)c(-c3ccc(F)cc3)nc3cnc(OC)nc32)cc1`, the max response stood at 13.8% under setting [1] and 24.7% under setting [4]. In addition, the AC50 by setting is: under setting [2], 3980 nM [rising, partial curve, poor fit]; under setting [3], 5.62 nM [rising, full curve, poor fit].
For `CS(=O)(=O)Nc1cccc(-c2cc(NCc3ccccc3)ncn2)c1`, the max response was found to be 27.5% under setting [1] and 30.2% under setting [4]. For the same compound, the AC50 under setting [2] is 2510 nM [rising, partial curve] and the AC50 under setting [3] was 1580 nM [rising, full curve, poor fit].
Consider `COc1cccc(Cn2c(=O)c(-c3ccc(Cl)cc3)nc3cnc(N4CCNCC4)nc32)c1`, for which the max response is, setting by setting: under setting [1], -49.7%; under setting [4], -84.9%. Besides, the AC50 is 25100 nM [falling, single point] under setting [2] and 28200 nM [falling, single point] under setting [3].
Regarding `COc1ccc(-n2c(=O)c(-c3cccc(Cl)c3)nc3cncnc32)cc1`, the max response under setting [1] is 45.5% and the max response under setting [4] is 50.6%. Also, the AC50 by setting is: under setting [2], 178 nM [rising, full curve]; under setting [3], 112 nM [rising, full curve].
With `COc1cccc2oc(-c3ccc(O)cc3)cc(=O)c12`, the max response amounted to 123% under setting [1] and 158% under setting [4]. For the same compound, the AC50 reads like this: under setting [2], 7940 nM [rising, partial curve]; under setting [3], 10000 nM [rising, partial curve].
As for `COc1ccccc1-c1cc(NCc2cccs2)ncn1`, the max response under setting [1] is 42.2% and the max response under setting [4] worked out at 51.2%. The AC50 under setting [2] was 3160 nM [rising, full curve] and the AC50 under setting [3] was 1580 nM [rising, full curve].
`Cc1cccc(-c2cc(=O)c3cc(C)ccc3o2)c1`: the max response under setting [1] amounted to 86.9% and the max response under setting [4] was 115%. Besides, the AC50 reads like this: under setting [2], 3160 nM [rising, full curve]; under setting [3], 2820 nM [rising, full curve].
For the compound `Cc1ccc(C(=O)Cn2c3c(sc2=N)CCCC3)cc1`, the max response runs as follows: under setting [1], 99%; under setting [4], 130%. In addition, the AC50 was 11200 nM [rising, partial curve] under setting [2] and 15800 nM [rising, partial curve] under setting [3].
Consider `CNc1nc(-c2ccoc2)nc2ccccc12`, for which the max response is, setting by setting: under setting [1], 34.8%; under setting [4], 44%. Besides, the AC50 reads like this: under setting [2], 2510 nM [rising, full curve, poor fit]; under setting [3], 2240 nM [rising, full curve, poor fit].
Consider `COc1cccc(Cn2c(=O)c(-c3cccc(C#N)c3)nc3cnc(Nc4ccccc4)nc32)c1`, for which the max response stood at 63.8% under setting [1] and 0.352% under setting [4]. For the same compound, the AC50 is 4470 nM [rising, partial curve] under setting [2] and 158 nM [rising, full curve, poor fit] under setting [3].
For the compound `N#Cc1cccc(-c2ccc3ncnc(NC4CCNCC4)c3c2)c1`, the max response reads like this: under setting [1], 34.3%; under setting [4], 42.3%. For the same compound, the AC50 is 3980 nM [rising, partial curve, poor fit] under setting [2] and 5010 nM [rising, partial curve, poor fit] under setting [3].
For `COc1cccc(Cn2c(=O)c(CCc3ccccc3)nc3cnc(N4CCN(C)CC4)nc32)c1`, the max response by setting is: under setting [1], 25.1%; under setting [4], 23.5%. In addition, the AC50 reads like this: under setting [2], 708 nM [rising, full curve, poor fit]; under setting [3], 631 nM [rising, full curve, poor fit].
On to `Cc1cnc(CNc2ncnc3ccc(-c4ccc(C(=O)N(C)C)cc4)cc23)cn1`, for which the max response is, setting by setting: under setting [1], 45.3%; under setting [4], 54.9%. In addition, the AC50 is 5620 nM [rising, partial curve] under setting [2] and 3160 nM [rising, full curve] under setting [3].
Take `O=c1c(-c2ccc(Cl)cc2)nc2cnc(N3CCOCC3)nc2n1CCc1ccccc1`: the max response by setting is: under setting [1], 37.1%; under setting [4], 44%. The AC50 under setting [2] was 3980 nM [rising, full curve, poor fit] and the AC50 under setting [3] is 3160 nM [rising, full curve, poor fit].
For `COc1ncc2nc(-c3cn(C)c4ccccc34)c(=O)n(CCC#N)c2n1`, the max response runs as follows: under setting [1], 25.7%; under setting [4], 31.1%. Further, the AC50 is, setting by setting: under setting [2], 2000 nM [rising, partial curve]; under setting [3], 631 nM [rising, full curve, poor fit].
`COCCn1c(=O)c(-c2ccccc2)nc2cnc(Oc3cccc(Cl)c3)nc21`: the max response under setting [1] worked out at 21.3% and the max response under setting [4] was determined as 19.7%. Further, the half-maximal activity concentration (AC50) reads like this: under setting [2], 5620 nM [rising, partial curve, poor fit]; under setting [3], 355 nM [rising, partial curve, poor fit].
Take `COc1cccc(-c2nc(N3CCN(C)CC3)c3ccccc3n2)c1`: the max response was 31.9% under setting [1] and 38.1% under setting [4]. In addition, the AC50 under setting [2] was 11200 nM [rising, partial curve, poor fit] and the concentration at half-maximal activity (AC50) under setting [3] was 10000 nM [rising, partial curve, poor fit].
With `c1cncc(-c2nc(NCc3cccs3)c3ccccc3n2)c1`, the max response stood at 21.3% under setting [1] and 30.4% under setting [4]. The AC50 runs as follows: under setting [2], 251 nM [rising, full curve]; under setting [3], 398 nM [rising, full curve].
On to `O=C(O)Cc1nn(Cc2ccc(Br)cc2F)c(=O)c2ccccc12`, for which the max response is, setting by setting: under setting [1], 52.7%; under setting [4], 89.6%. In addition, the AC50 by setting is: under setting [2], 15800 nM [rising, partial curve, poor fit]; under setting [3], 25100 nM [rising, partial curve, poor fit].
On to `CNc1ncnc2c1ncn2[C@H]1C[C@H](OP(=O)(O)O)[C@H](COP(=O)(O)O)O1`, for which the max response runs as follows: under setting [1], 33.1%; under setting [4], 48.1%. Besides, the AC50 was 31600 nM [rising, single point] under setting [2] and 35500 nM [rising, single point] under setting [3].
For `Clc1ccccc1-c1nc(Nc2ccncc2)c2ccccc2n1`, the max response under setting [1] was found to be 22.3% and the max response under setting [4] turned out to be 23.3%. The AC50 by setting is: under setting [2], 224 nM [rising, full curve, poor fit]; under setting [3], 224 nM [rising, full curve, poor fit].
On to `CNc1nc(-c2cccc(NS(C)(=O)=O)c2)nc2ccccc12`, for which the max response runs as follows: under setting [1], 34.1%; under setting [4], 40.2%. Besides, the concentration at half-maximal activity (AC50) reads like this: under setting [2], 1000 nM [rising, full curve, poor fit]; under setting [3], 794 nM [rising, full curve].
As for `CC(C)[C@H](CO)Nc1nc(Nc2cc(N)cc(Cl)c2)c2ncn(C(C)C)c2n1`, the max response was 70.3% under setting [1] and 83.2% under setting [4]. Moreover, the concentration at half-maximal activity (AC50) under setting [2] was 20000 nM [rising, partial curve] and the AC50 under setting [3] is 20000 nM [rising, full curve, poor fit].
Turning to `O=c1c(-c2cccc(Cl)c2)nc2cncnc2n1-c1ccccc1`, the max response reads like this: under setting [1], 35.8%; under setting [4], 39.1%. Also, the AC50 was 1780 nM [rising, full curve] under setting [2] and 1120 nM [rising, full curve, poor fit] under setting [3].
With `COc1ncc2nc(CCc3ccccc3)c(=O)n(CCc3ccccc3)c2n1`, the max response reads like this: under setting [1], 5.42%; under setting [4], 11.8%. Besides, the AC50 is 89.1 nM [rising, full curve, poor fit] under setting [2] and 112 nM [rising, full curve] under setting [3].
In the case of `COCCn1c(=O)c(-c2ccc(OC)cc2)nc2cnc(Oc3ccccc3)nc21`, the max response by setting is: under setting [1], 3.95%; under setting [4], 3.83%. The AC50 reads like this: under setting [2], 4470 nM [rising, partial curve]; under setting [3], 4470 nM [rising, partial curve].
With `Clc1ccccc1-c1nccc(NCCN2CCOCC2)n1`, the max response worked out at 34% under setting [1] and 39.3% under setting [4]. Besides, the AC50 is 1120 nM [rising, full curve, poor fit] under setting [2] and 1120 nM [rising, full curve, poor fit] under setting [3].
For `COCCn1c(=O)c(-c2cn(C)c3ccccc23)nc2cncnc21`, the max response runs as follows: under setting [1], 30.5%; under setting [4], 33.4%. Besides, the AC50 under setting [2] was 355 nM [rising, full curve, poor fit] and the AC50 under setting [3] was 501 nM [rising, full curve].
